{"source": "PubChem BioAssay AID1347120", "about": "(National Center for Advancing Translational Sciences (NCATS), 2019)", "note": "Among all 390,000 compounds or so, about 930 (0.24%) were called active. The shares of active, inactive and inconclusive entries below differ from those in the screen. The call rests on the fitted dose curve; in most records, active means well fitted activation curve with a large enough effect; inconclusive means small, poorly fitted or top-dose-only effect; inactive means no such curve, though single readings can be large or run the other way. A potency beside an inconclusive call is a rough fit, not a confirmed value. Potency means the concentration at half of the fitted maximal effect; tags describe the fitted curve by direction and shape.", "data": [{"experiment": "qHTS for Suppressors of FUS Proteinopathy: Primary screen using FUS-linked yeast assay; further: nearly all actives have a fitted effect of over 55% in size;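 on growth rescue (activation): plate controls were DMSO vehicle for no effect and reference control for full effect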", "conditions": "S. cerevisiae FUS-expressing, OD600, 24 h; Potency: growth rescue; growth rescue (activation): at 76.6 µM (top of the series)", "in_short": "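Restored growth of FUS-toxic S. cerevisiae, read as 600 nm absorbance after 24 h at 30C in galactose medium (starting OD 0.005). Controls CP55940 and DMSO.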", "values": [{"smiles": "NC(=O)CSC1=Nc2ccccc2C2=NC(CC(=O)NCc3cccs3)C(=O)N12", "note": "(centres undefined)", "growth rescue (activation)": "inconclusive: 70.5% [activator]"}, {"smiles": "CCOc1ccc(NCc2nnc(SCc3ccccc3Cl)n2-c2ccccc2)cc1", "Potency": "inconclusive: 50.1 µM [activator, single point]"}, {"smiles": "O=C(c1cccc([N+](=O)[O-])c1)N1CCN(c2ccc(Nc3ccccc3)nn2)CC1", "growth rescue (activation)": "inactive: 1.96%"}, {"smiles": "COc1cc(NC(=O)c2c(F)cccc2F)nc(OC)n1", "growth rescue (activation)": "inconclusive: 53.6% [activator]"}, {"smiles": "COc1ccc(CNC(=O)CN2C(=O)CCn3nc(-c4cn(C)c5ccccc45)cc32)cc1", "Potency": "inconclusive: 31.6 µM [activator, partial curve, poor fit]"}, {"smiles": "CCOC(=O)C1=C(C)n2c(s/c(=C3\\C(=O)Nc4ccccc43)c2=O)=NC1c1ccc(OC)cc1", "note": "(centres undefined)", "Potency": "inconclusive: 50.1 µM [activator, single point]"}, {"smiles": "O=C(O)CN1C(=O)c2cccc3c(Br)ccc1c23", "growth rescue (activation)": "inactive: 9.82%"}, {"smiles": "CCOC(=O)Cc1ccc(NC(=O)NC(C)c2c(-n3cccc3)sc(C)c2C)cc1", "note": "(centres undefined)", "growth rescue (activation)": "inactive: -8.91%"}, {"smiles": "COc1ccc(-c2onc(C)c2C)cc1S(=O)(=O)NCCc1ccccc1", "growth rescue (activation)": "inactive: 10.1%"}, {"smiles": "O=C(Nc1cccc(S(=O)(=O)N2CCCCC2)c1)C1CC(=O)N(c2ccc3c(c2)OCCO3)C1", "note": "(centres undefined)", "Potency": "inconclusive: 31.6 µM [activator, single point]"}, {"smiles": "COc1cc(-n2c(=O)c3ccccc3n(Cc3cccc(Cl)c3)c2=O)cc(OC)c1OC", "growth rescue (activation)": "inactive: 3.62%"}, {"smiles": "COc1ccc(CCN2C(=O)N(c3cccc(OC)c3)C(=O)C2CC(=O)Nc2ccccc2)cc1", "note": "(centres undefined)", "Potency": "inconclusive: 39.8 µM [activator, partial curve, poor fit]"}, {"smiles": "Cc1ccc(C)c(Cn2c(=O)n(-c3ccccc3)c(=O)c3c4c(sc32)CCCC4)c1", "growth rescue (activation)": "inactive: -23.1%"}, {"smiles": "COc1ccc(NC(=O)Nn2cnnc2)cc1OC", "growth rescue (activation)": "inactive: 15.6%"}, {"smiles": "Cc1ccc(C)c(N2CCN(C(=O)c3ccc(Cn4c(=O)[nH]c5ccccc5c4=O)cc3)CC2)c1", "Potency": "inconclusive: 28.2 µM [activator, single point]"}, {"smiles": "CCc1ccc(C(=O)C(C)OC(=O)c2nn(C)c(=O)c3ccccc23)cc1", "note": "(centres undefined)", "Potency": "inconclusive: 28.2 µM [activator, single point]"}, {"smiles": "C=CCn1c(SCC(=O)Nc2nc3ccccc3s2)nnc1-c1ccccc1O", "Potency": "inconclusive: 39.8 µM [activator, partial curve, poor fit]"}, {"smiles": "CCCCCCCCN1C(=O)[C@H](CC(=O)NCc2cccc3ccccc23)C[C@@]2(C(=O)OCC)CCC=C12", "Potency": "inconclusive: 14.1 µM [activator, partial curve]"}, {"smiles": "CCOC(=O)c1[nH]c2c(c1Cc1ccccc1)C(=O)CC(c1ccccc1)C2", "note": "(centres undefined)", "growth rescue (activation)": "inactive: 15.7%"}, {"smiles": "CCN1CCN(C(c2ccccc2Cl)c2sc3nc(-c4ccco4)nn3c2O)CC1", "note": "(centres undefined)", "growth rescue (activation)": "inactive: -9.27%"}, {"smiles": "COc1ccc2sc(-c3ccc(N(C)C)cc3)c(C#Cc3cncn3C)c2c1", "Potency": "inconclusive: 35.5 µM [activator, single point]"}, {"smiles": "O=C1Nc2ccccc2C(O)(C(=O)NCc2ccco2)N1c1ccc(Cl)cc1", "note": "(centres undefined)", "Potency": "inconclusive: 20 µM [activator, partial curve, poor fit]"}, {"smiles": "CCOC(=O)CCCCC(=O)NC(CO)C(=O)NC", "note": "(centres undefined)", "Potency": "inconclusive: 0.891 µM [activator, full curve, poor fit]"}, {"smiles": "O=C(CSc1ccccc1F)NC(=O)NCc1ccco1", "Potency": "inconclusive: 44.7 µM [activator, single point]"}, {"smiles": "CCC1CCc2sc(C(=O)NNC(=S)NCC3CCCO3)cc2C1", "note": "(centres undefined)", "Potency": "inconclusive: 6.31 µM [activator, single point]"}, {"smiles": "CCC(C)(C)n1nnnc1C(c1ccc2ncccc2c1)N1CCN(c2nc3ccccc3s2)CC1", "note": "(centres undefined)", "Potency": "inconclusive: 22.4 µM [activator, partial curve]"}, {"smiles": "COC(=O)Cn1c(C(=O)N2CCCC2)cc2c1C[C@H]1CN(C(=O)c3ccccc3)[C@@](Cc3ccc(F)cc3)(C(=O)OC)[C@@H]21", "Potency": "inconclusive: 15.8 µM [activator, partial curve]"}, {"smiles": "CC(C)C(=O)Nc1ccc([N+](=O)[O-])cc1Br", "growth rescue (activation)": "inactive: -15.6%"}, {"smiles": "COC1=C(Nc2ccccc2)C(=O)c2ccccc2C1=O", "growth rescue (activation)": "inactive: 13%"}, {"smiles": "COc1ccc(-c2c(Cc3ccccc3)nc(NC(=O)c3ccccc3)n2Cc2ccccc2)cc1", "growth rescue (activation)": "inactive: 43.9%"}, {"smiles": "COC(=O)[C@]12C[C@H](CC(=O)NCc3cccs3)C(=O)N(Cc3ccc4c(c3)OCO4)C1=C[C@H](C(C)C)O[C@@H]2C1CC1", "Potency": "inconclusive: 25.1 µM [activator, single point]"}, {"smiles": "COc1ccc(OC)c(N(CC(=O)Nc2ccc3c(c2)OCO3)S(=O)(=O)c2ccccc2)c1", "Potency": "inconclusive: 17.8 µM [activator, partial curve, poor fit]"}, {"smiles": "CC1(C(=O)Nc2ccc3c(c2)OCO3)Cc2c(-c3cccc(C(N)=O)c3)ccnc2O1", "note": "(centres undefined)", "Potency": "inconclusive: 31.6 µM [activator, single point]"}, {"smiles": "Cc1ccc(S(=O)(=O)N2CCC(=O)N(C(COC(=O)Nc3ccccc3)Cc3ccccc3)CC2)cc1", "note": "(centres undefined)", "Potency": "inconclusive: 17.8 µM [activator, single point]"}, {"smiles": "C=CC[C@@H](CC(=O)N(CCO)Cc1ccccc1)C(=O)N[C@H](COC(=O)[C@@H](CC=C)Cc1ccc(F)cc1)Cc1c[nH]c2ccccc12", "Potency": "inconclusive: 2.24 µM [activator, full curve]"}, {"smiles": "Cc1ccc(-c2cc(-c3ccccc3)c(C#N)c(N)n2)o1", "Potency": "inconclusive: 35.5 µM [activator, single point]"}, {"smiles": "Cc1ccc(N2C(=O)N3[C@H](c4ccc(F)cc4)[C@@H]4C(=O)N(C5CCCCC5)C(=O)[C@@H]4[C@]3(Cc3ccccc3)C2=O)cc1", "Potency": "inconclusive: 12.6 µM [activator, partial curve]"}, {"smiles": "CC(=O)c1ccc(N2CCN(C(=O)C3CCN(S(=O)(=O)c4ccc5c(c4)CC(C)N5C(=O)C4CC4)CC3)CC2)cc1", "note": "(centres undefined)", "Potency": "inconclusive: 22.4 µM [activator, partial curve, poor fit]"}, {"smiles": "COC(=O)[C@H](CC(C)C)N1Cc2nnn(Cc3ccc(C)cc3)c2-c2cc(F)ccc2S1(=O)=O", "Potency": "inconclusive: 31.6 µM [activator, partial curve, poor fit]"}]}]}
